# The full ranking holds about 33,000 sequences; the median of “E-score (-0.5 to 0.5)” is about -0.013, and the highest 2% start at about 0.3. Some of the results follow.
# Biological target: T1, Msn1 (UniProt P22148)
# T1 sequence: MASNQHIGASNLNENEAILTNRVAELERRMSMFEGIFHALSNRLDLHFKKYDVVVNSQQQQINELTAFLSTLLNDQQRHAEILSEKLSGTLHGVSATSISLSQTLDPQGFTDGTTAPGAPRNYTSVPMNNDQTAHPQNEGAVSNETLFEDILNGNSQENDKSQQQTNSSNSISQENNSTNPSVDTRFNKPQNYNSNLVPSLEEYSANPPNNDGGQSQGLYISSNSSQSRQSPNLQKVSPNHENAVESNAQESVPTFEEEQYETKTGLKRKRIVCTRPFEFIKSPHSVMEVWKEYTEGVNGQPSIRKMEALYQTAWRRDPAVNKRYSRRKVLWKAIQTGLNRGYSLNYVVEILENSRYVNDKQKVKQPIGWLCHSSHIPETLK
# Experiment: PBM E-score (8-mer binding enrichment) (E-score (-0.5 to 0.5)); higher = stronger / more preferred TF binding; most listed sequences are background and not binding sites
# Settings: protein concentration: 200 nM; construct: GST-full length
# Summary of the method: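 Each ungapped eight-base word and its reverse complement, pooled, received an E-score from the Universal PBM Analysis Suite. Underlying scans, normalised with masliner, recorded fluorescent anti-GST bound to GST-tagged yeast transcription factors. These were applied at about 100-200 nM to universal all-10-mer Agilent arrays double-stranded by primer extension.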
row,Sequence,PBM E-score
1,CATTTCCG,0.288
2,GTCACTAA,0.128
3,ATTACCGC,0.132
4,TCAAGGGA,0.0607
5,AGGCGCGA,0.0737
6,GCTTCCCC,-0.325
7,ATCAACCC,0.00232
8,AGCTCCAA,0.041
9,GGCCTCGA,-0.0622
10,CCTGGCAA,-0.0698
11,CACCGACC,-0.197
12,ACTGCGAT,-0.0979
13,AGACCGCA,-0.0323
14,AATGTTAA,-0.0123
15,CAAGCAAG,-0.101
16,GGAGATCC,-0.129
17,TTGCAAAA,0.0627
18,AATGTCTA,0.454
19,CGGGGGGA,-0.396
20,GACCCGTC,-0.249
21,AACATATA,0.0881
22,AGGGCTGG,-0.174
23,CTAAGTTC,-0.124
24,CATTTGGA,0.209
25,AGAGTTCA,-0.125

row,Sequence,PBM E-score
1,AGTGCGTA,-0.168
2,ACCACGTA,-0.2
3,GAAGGATC,-0.238
4,CGAGGAAG,-0.175
5,CAATACCG,-0.113
6,CGTGAGCA,-0.23
7,GACAGTGC,0.00339
8,ACTTCTCA,0.0991
9,ATTTTACC,0.231
10,CGCTTCCA,-0.13
11,GTTTGGAA,0.0732
12,ATAGGCGG,0.123
13,GGACAGAC,0.375
14,CGCGACAC,0.118
15,CCTTTCAG,-0.0397
16,GGAGCGCA,-0.345
17,CAAGTTAC,0.064
18,CCTTATGA,0.0601
19,TCAGACCA,-0.0852
20,AGCTTGAA,-0.0497
21,GAACTAAA,0.131
22,ATCATCTG,0.0633
23,ACCATTTG,0.114
24,AAGATTTC,0.0737
25,AGTAGCTG,-0.0836

row,Sequence,PBM E-score
1,AACTATAT,0.215
2,GAGGCGTA,-0.118
3,CGTGCTAG,-0.122
4,CGTGTCAA,-0.104
5,CAGTCCCG,-0.153
6,GCGATTAA,0.101
7,GTTACTCA,0.043
8,CTTGCGCA,0.0933
9,CGGGATGC,-0.168
10,CGTGATGC,-0.147
11,CCGACGGC,-0.0173
12,GCGCATTA,0.0379
13,AGATCTTA,0.0143
14,ATCAAGCG,0.0736
15,CATTTCGC,0.175
16,CTTTGCGC,-0.0143
17,AAAATGAA,-0.00087
18,CGACGGAC,0.229
19,CCATTGGA,-0.0624
20,GATGTGTA,-0.00302
21,ACATGCGT,0.0734
22,GTTTGAAA,0.0809
23,ACAATGTG,0.0288
24,GCCACATA,-0.00313
25,CGCTTACC,-0.0094

row,Sequence,PBM E-score
1,CACCACCA,-0.262
2,AAATGCGG,0.11
3,CCTTAACG,0.0499
4,AGAAATAC,-0.017
5,AGGATACG,-0.105
6,CTTTCTTC,-0.0175
7,CGATGTAG,0.202
8,AACAAATT,0.157
9,GGAACATA,0.124
10,CTAACGGA,0.137
11,AGCTAGCT,-0.0901
12,AGTATTTA,0.134
13,CTGAAACA,0.0997
14,ATGGTAGA,0.0607
15,AACACGGT,-0.00479
16,GAGGAGGC,-0.35
17,AGCTAGTA,0.0996
18,CTTCAAAC,-0.0434
19,GCGATGAA,0.138
20,CACGTGGC,-0.168
21,CCTGTTTA,-0.0126
22,CGAGTAAG,0.0979
23,GGACCACC,-0.165
24,GGCCCACA,-0.113
25,CTTAAACC,0.00747

row,Sequence,PBM E-score
1,GACAATCA,0.217
2,ATCCGTAC,0.1
3,ACATGCAA,0.0293
4,ACAAGTGG,0.152
5,CGATGAAC,-0.0621
6,AGGCGGTC,-0.0693
7,CCTCGCGA,-0.188
8,ACAGCAAT,0.138
9,GAGCAGCA,0.0385
10,CCGTTCCC,-0.165
11,ATACGATC,0.106
12,GATCTGCC,-0.0561
13,AAAGAATC,-0.0643
14,AAGGGGTG,-0.0822
15,ACTTCGAT,0.0414
16,CGCTACTC,0.0548
17,AGTGTAGC,-0.0951
18,GCCTGCAA,-0.0526
19,AGAGCTAG,-0.12
20,CTAGAGGA,0.00357
21,GTAGTCAC,-0.0991
22,GAAAAGTA,0.167
23,AATGTGCA,0.0661
24,GTAAATAC,-0.0147
25,AGTGAGCG,0.0187

row,Sequence,PBM E-score
1,AAGCAAGC,-0.012
2,GGAGTGCA,-0.159
3,TTGCGAAA,0.0731
4,AAGTTTCC,-0.0421
5,GAATGAGA,-0.132
6,AGCATGGG,-0.242
7,GGGACGTA,0.0883
8,AAAAGTGT,0.0256
9,GCTCCCCA,-0.338
10,CTTGGGCA,0.113
11,ATACGTAT,0.123
12,AACGATTA,-0.13
13,ATCGGCGA,-0.0922
14,ATAGATTC,-0.0916
15,ACCCTGCA,-0.0836
16,ATGGCACG,-0.29
17,CAACATGG,0.0147
18,CTGTAGCC,0.0564
19,GCTCACCA,-0.00029
20,TGTAGCAA,0.0325
21,GGGCAGGA,-0.097
22,AAGCTTCC,-0.0608
23,ATTATGTC,0.367
24,AATTACCA,0.0886
25,CTAACCTA,-0.0276

row,Sequence,PBM E-score
1,GAATCGAC,0.0159
2,GAGACTGA,-0.0203
3,GCCCATAA,-0.242
4,CGCTTACA,-0.0076
5,AGTACCGG,0.0467
6,AGAATACC,0.0521
7,CTAAGTAG,0.0501
8,GAGGTCGC,-0.186
9,CGAGACTC,-0.00493
10,GACCGGGC,-0.0657
11,TAGTTTAA,0.178
12,AACTCATT,-0.14
13,CATGCATG,0.0791
14,AGTGGCCA,-0.106
15,ACCGCCGT,-0.0448
16,TAACCCTA,-0.0127
17,GCGTAGCA,-0.0678
18,ATATTCAA,0.169
19,GGACAAGA,0.458
20,ACCGGATC,-0.0837
21,GTCCCCCA,-0.119
22,CCTAAGAA,0.21

# Source: the supplement of paper PMC3334620
